# Results as given in PubChem BioAssay (NCATS).
# Several values for one entry are separate records, joined by “and”; a condition that tells them apart may be missing. Equal entries are not always repeated. Inconclusive means that the source gave no clear call. Such entries were picked first, then a sample of the others. Entries that show only a call come without a potency. Where the call is inconclusive, the potency comes from a doubtful curve fit. Activity calls are given as the source filed them. Unless noted, the call rests on the fitted dose curve; in most records, active means well fitted curve in the direction sought with a large enough effect; inconclusive means small, poorly fitted or top-dose-only effect, or another doubt; inactive means no such curve, though single readings can be large; an effect the other way counts as inactive or inconclusive.
# Key:
# [1] = qHTS of pediatric cancer cell lines to identify multiple opportunities for drug repurposing: Primary screen for TC32 cells (AID 1347089); further: nearly all actives have a fitted effect of over 60% in size
# In short: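 A viability screen of TC32 cells was run over 48 h, with primary MIPE doses spanning 0.78 nM–46 µM and NPC doses 0.59 nM–46 µM. ATP luminescence (CellTiter-Glo) served as the read-out.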
# [2] = biological target: Nucleoprotein (Lymphocytic choriomeningitis virus (strain Armstrong)) (UniProt P09992); assay: qHTS for Inhibitors of the Functional Ribonucleoprotein Complex (vRNP) of Lymphocytic Choriomeningitis Arenaviruses (LCMV): LCMV Primary Screen - GLuc reporter signal (AID 1347086; calls by dose curve; further: nearly all actives have a fitted effect of over 70% in size); conditions: LCMV minigenome vRNP cell assay, Gaussia luciferase reporter; series mostly up to 57.5 µM
# Chain of UniProt P09992 (P09992 whole entry, looked up): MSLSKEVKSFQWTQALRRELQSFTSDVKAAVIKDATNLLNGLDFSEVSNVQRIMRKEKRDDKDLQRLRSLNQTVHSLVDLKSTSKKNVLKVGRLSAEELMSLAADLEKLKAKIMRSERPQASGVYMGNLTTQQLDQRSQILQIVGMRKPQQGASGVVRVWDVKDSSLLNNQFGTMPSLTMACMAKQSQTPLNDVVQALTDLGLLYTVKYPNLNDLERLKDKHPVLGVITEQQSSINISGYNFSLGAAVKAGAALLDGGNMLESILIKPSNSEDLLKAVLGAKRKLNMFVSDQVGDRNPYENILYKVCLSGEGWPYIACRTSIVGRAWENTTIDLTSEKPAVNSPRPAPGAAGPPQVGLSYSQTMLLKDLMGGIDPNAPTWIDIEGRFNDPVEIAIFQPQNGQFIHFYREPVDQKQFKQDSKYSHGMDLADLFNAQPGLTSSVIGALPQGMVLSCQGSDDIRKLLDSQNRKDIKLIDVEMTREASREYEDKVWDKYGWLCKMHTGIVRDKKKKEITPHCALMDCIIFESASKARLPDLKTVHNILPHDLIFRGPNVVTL
# [3] = qHTS of pediatric cancer cell lines to identify multiple opportunities for drug repurposing: Primary screen for DAOY cells (AID 1347090); conditions: DAOY medulloblastoma viability, CellTiter-Glo luminescence, 48 h; activity change, negative = cytotoxic: at 46 µM (top of the series); further: nearly all actives have a fitted effect of over 55% in size
# In short: (§1)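 Cell viability, CellTiter-Glo luminescence; 500-1,000 cells/well, 8- or 11-point titration, 48 h compound exposure at 37 degrees C, 5% CO2. Controls: DMSO neutral, bortezomib 2.3 µM final as positive.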
# [4] = qHTS of pediatric cancer cell lines to identify multiple opportunities for drug repurposing: Primary screen for A673 cells (AID 1347092); conditions: A673 Ewing sarcoma viability, CellTiter-Glo ATP luminescence, 48 h; activity change, negative = cytotoxic: at 46 µM (top of the series) unless noted; further: nearly all actives have a fitted effect of over 45% in size
# In short: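 Titration-based qHTS on A673 cells: MIPE compounds spanned 11 points (0.78 nM to 46 µM final), NPC compounds 8 points (0.59 nM to 46 µM final). Viability after 48 h was measured by ATP luminescence.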
# [5] = qHTS of pediatric cancer cell lines to identify multiple opportunities for drug repurposing: Primary screen for SJ-GBM2 cells (AID 1347091)
# In short: as §1
# Potency means the concentration at half of the fitted maximal effect; tags describe the fitted curve by direction and shape.
compound,measurement,setting,value
CCCCOC(=O)c1ccccc1C(=O)OCc1ccccc1,Potency,[1],inactive
O=C(O)Cc1ccccc1,Potency,[2],inactive
CNC(=O)c1ccc(N2C(=S)N(c3ccc(C#N)c(C(F)(F)F)c3)C(=O)C23CCC3)cc1F,Potency,[2],"inconclusive: 54.4 µM [inhibitor, single point]"
CCCCCCCCCC(=O)O[C@H]1CC[C@H]2[C@@H]3CCC4=CC(=O)CC[C@@H]4[C@H]3CC[C@]12C,Potency,[1],"inconclusive: 0.105 µM [rising, full curve, poor fit]"
CC1N=C(N)OC1c1ccccc1 (stereo not drawn),Potency,[1],inactive
N#CC(C#N)=Cc1ccc(O)c(O)c1,Potency,[2],inactive
same,Potency,[1],"inconclusive: 23.6 µM [cytotoxic, single point]"
same,Potency,[3],inactive
same,Potency,[4],"inconclusive: 16.8 µM [cytotoxic, single point]"
Clc1ccc(CCC(Cn2ccnc2)Sc2c(Cl)cccc2Cl)cc1 (stereo not drawn),Potency,[2],"inconclusive: 56.2 µM [inhibitor, single point]"
same,Potency,[3],"inconclusive: 37.2 µM [cytotoxic, single point]"
same,Potency,[5],"inconclusive: 33.2 µM [cytotoxic, single point]"
same,Potency,[4],"inconclusive: 26.6 µM [cytotoxic, single point] and active: 23.5 µM"
O=C1NCN(c2ccccc2)C12CCN(CCCOc1ccc(F)cc1)CC2,Potency,[2],inactive
same,Potency,[3],inactive
same,Potency,[5],"inconclusive: 21.1 µM [cytotoxic, single point]"
CCC1(CCC(C)C)C(=O)NC(=O)NC1=O,Potency,[2],inactive
same,Potency,[5],inactive
COC1(CS(=O)c2ccccc2)CCN(CCc2c[nH]c3ccc(F)cc23)CC1 (stereo not drawn),Potency,[2],inactive
Nc1ccc(Cl)cc1N,Potency,[2],inactive
same,Potency,[4],"inconclusive: 38.6 µM [cytotoxic, partial curve]"
C#C[C@]1(O)C=C[C@H]2[C@@H]3CCC4=CC(=O)CC[C@@H]4[C@H]3CC[C@@]21CC,Potency,[2],inactive
Oc1ccc([C@H]2CNCc3c2ccc(O)c3O)cc1O,Potency,[2],inactive
same,Potency,[3],"inconclusive: 33.5 µM [cytotoxic, single point]"
same,Potency,[4],"inconclusive: 33.5 µM [cytotoxic, single point]"
C1=C2CCCN[C@H]2[C@@H]2C[C@H]1[C@@H]1CCCCN1C2,Potency,[2],inactive
same,Potency,[5],inactive
same,Potency,[4],"inconclusive: 23.5 µM [cytotoxic, partial curve]"
C[N+](C)(C)CC#CCOC(=O)Nc1cccc(Cl)c1,Potency,[2],inactive
O=C(O)CCCc1ccc(N(CCCl)CCCl)cc1,Potency,[2],inactive
same,Potency,[3],"inconclusive: 21.1 µM [cytotoxic, partial curve, poor fit]"
same,Potency,[5],"inconclusive: 29.9 µM [cytotoxic, single point]"
same,Potency,[4],"inconclusive: 23.5 µM [cytotoxic, single point]"
CC(C)NCC(O)c1ccc(N)c(C#N)c1 (stereo not drawn),Potency,[2],inactive
NC1=NC(=O)N2CC12 (stereo not drawn),Potency,[2],inactive
same,Potency,[1],inactive
same,Potency,[4],"inconclusive: 23.5 µM [cytotoxic, single point]"
NCC(O)c1ccc(O)cc1 (stereo not drawn),Potency,[1],inactive
CNC(C)Cc1ccc2c(c1)OCO2 (stereo not drawn),Potency,[1],"inconclusive: 0.937 µM [rising, full curve, poor fit]"
C[C@@H]1CC2=CC(=O)CC[C@@H]2[C@H]2CC[C@@]3(C)[C@@H](CC[C@]3(C)O)[C@@H]21,Potency,[2],inactive
same,Potency,[5],inactive
CCCSP(=O)(OCC)SCCC,Potency,[1],inactive
C[C@H](N)C(=O)c1ccccc1,Potency,[2],inactive
CC(C)(C)OC(=O)c1ncn2c1[C@@H]1CCCN1C(=O)c1c(Br)cccc1-2,Potency,[2],"inconclusive: 8.91 µM [inhibitor, partial curve, poor fit]"
same,Potency,[5],inactive
CNC(=O)Oc1cccc2ccccc12,Potency,[1],"inconclusive: 9.38 µM [cytotoxic, partial curve]"
CC1=C2C[C@@H]3[C@@H](CC=C4C[C@@H](O)CC[C@@]43C)[C@@H]2CC[C@]12O[C@H]1C[C@H](C)CN[C@H]1[C@H]2C,Potency,[1],inactive
same,Potency,[3],"inconclusive: 18.7 µM [cytotoxic, partial curve, poor fit]"
same,Potency,[5],"inconclusive: 20.9 µM [cytotoxic, partial curve]"
O=C(O)CCc1ccc(NCc2cccc(Oc3ccccc3)c2)cc1,Potency,[2],inactive
CC(=O)OCC1=C(C(=O)O)N2C(=O)[C@@H](N)[C@@H]2SC1,Potency,[1],inactive
CC[C@H]1C[C@H]2[C@@H]3CCC4=CC(=O)CC[C@@H]4[C@H]3CC[C@]2(C)[C@H]1O,Potency,[3],inactive
C[C@]12CCC(=O)C(O)=C1CC[C@@H]1[C@H]3CCC(=O)[C@@]3(C)CC[C@@H]12,Potency,[3],inactive
